Measured values taken from the antibiotic and cytotoxicity screens of Wong et al. (2023).
Some of the results follow.

Tested on: HSkMC (human skeletal muscle cells)
Experiment: cytotoxicity call (relative viability < 0.9)
Settings: 10 µM

With C[C@@H]1CN([C@@H](C)CO)C(=O)c2cc(NC(=O)CCC(F)(F)F)ccc2O[C@@H](C)CCCCO[C@@H]1CN(C)C(=O)NC1CCCCC1 as the molecule, how does the cytotoxicity call read?
The cytotoxicity call was “inactive”.

With C[C@H]1CN([C@@H](C)CO)S(=O)(=O)c2ccc(C3=CCCC3)cc2O[C@H]1CN(C)S(=O)(=O)c1cn(C)cn1 as the molecule, how does the cytotoxicity call read?
Its cytotoxicity call is “inactive”.

For Cc1noc(C)c1NC(=O)N(C)C[C@H]1Oc2ccc(NS(C)(=O)=O)cc2C(=O)N([C@@H](C)CO)C[C@H]1C, which cytotoxicity call is on record?
The cytotoxicity call was “inactive”.

With N=C(N)SCc1csc(N)n1 as the molecule, how does the cytotoxicity call read?
The cytotoxicity call was “inactive”.

Which cytotoxicity call does the source give for Cc1noc(C)c1S(=O)(=O)Nc1ccc2c(c1)C(=O)N([C@@H](C)CO)C[C@@H](C)[C@@H](CN(C)Cc1ccc(-c3ccccc3)cc1)O2 here?
The cytotoxicity call was “inactive”.

Which cytotoxicity call does the source give for C=CC[C@@H](CC(=O)N[C@H](CO)Cc1ccccc1)C(=O)N[C@H](C)COC(=O)[C@@H](CC=C)CC(=O)OC(C)(C)C here?
Its cytotoxicity call is “inactive”.

With CCCCN1C[C@H](O)[C@@H](O)[C@H](O)[C@H]1CO as the molecule, how does the cytotoxicity call read?
Its cytotoxicity call is “inactive”.

Which cytotoxicity call does the source give for Cc1noc(C)c1NC(=O)N(C)C[C@@H]1Oc2ncc(C#CCC(C)C)cc2C(=O)N([C@H](C)CO)C[C@@H]1C here?
The cytotoxicity call was “inactive”.

Which cytotoxicity call does the source give for C[C@@H]1CN([C@H](C)CO)C(=O)Cc2cc(NC(=O)Nc3ccc(C(F)(F)F)cc3)ccc2O[C@H]1CN(C)C(=O)Nc1ccc(C(F)(F)F)cc1 here?
Its cytotoxicity call is “active”.

COc1ccc(NC(=O)N(C)C[C@H]2Oc3c(NC(=O)Nc4ccc(C(F)(F)F)cc4)cccc3C(=O)N([C@@H](C)CO)C[C@@H]2C)cc1 was tested. Which cytotoxicity call did it give?
Its cytotoxicity call is “active”.

For Cc1noc(C)c1NC(=O)N[C@H]1CC[C@@H](CC(=O)N2CCN(C)CC2)O[C@H]1CO, which cytotoxicity call is on record?
The cytotoxicity call was “inactive”.

With Cc1noc(C)c1NC(=O)N(C)C[C@H]1OCCCC[C@@H](C)Oc2ccc(NC(=O)Nc3ccc4c(c3)OCO4)cc2C(=O)N([C@@H](C)CO)C[C@H]1C as the molecule, how does the cytotoxicity call read?
The cytotoxicity call was “inactive”.

With COc1ccccc1CNC(=O)C[C@H]1CC[C@H]2[C@@H](COC[C@@H](O)CN2C(=O)Nc2ccc(F)cc2)O1 as the molecule, how does the cytotoxicity call read?
The cytotoxicity call was “inactive”.

How did the cytotoxicity call turn out when C[C@@H]1CN([C@H](C)CO)C(=O)CCCn2nncc2CO[C@H]1CN(C)C(=O)Nc1ccc2c(c1)OCCO2 was run?
Its cytotoxicity call is “inactive”.

With Cc1ccc(S(=O)(=O)N(C)C[C@H]2OCCCC[C@@H](C)Oc3ccc(NC(=O)Nc4c(C)noc4C)cc3C(=O)N([C@H](C)CO)C[C@H]2C)cc1 as the molecule, how does the cytotoxicity call read?
Its cytotoxicity call is “inactive”.

For COc1ccc(S(=O)(=O)Nc2ccc3c(c2)[C@@H]2C[C@@H](CC(=O)NCC4CC4)O[C@H](CO)[C@@H]2O3)cc1, which cytotoxicity call is on record?
The cytotoxicity call was “inactive”.

Which cytotoxicity call does the source give for CN(C)CCOc1c(Br)cc(/C=C/C(=O)NCCCOc2c(Br)cc(CCN(C)C)cc2Br)cc1Br here?
Its cytotoxicity call is “inactive”.

For CN1CCN(C(=O)C[C@@H]2CC[C@H]3[C@@H](COc4ccc(NC(=O)c5cccs5)cc4C(=O)N3C)O2)CC1, which cytotoxicity call is on record?
The cytotoxicity call was “inactive”.

Which cytotoxicity call does the source give for C[C@@H]1CN([C@H](C)CO)C(=O)c2cc(NC(=O)Nc3ccccc3)ccc2O[C@@H]1CN(C)Cc1ccc(Oc2ccccc2)cc1 here?
The cytotoxicity call was “active”.

How did the cytotoxicity call turn out when C[C@@H]1CN([C@H](C)CO)C(=O)c2cc(NC(=O)CCC(F)(F)F)ccc2O[C@@H](C)CCCCO[C@@H]1CN(C)Cc1ccc(C(F)(F)F)cc1 was run?
Its cytotoxicity call is “inactive”.

CNC(=O)c1c(I)c(C(=O)NCC(=O)Nc2c(I)c(C(=O)O)c(I)c(C(=O)NCCO)c2I)c(I)c(N(C)C(C)=O)c1I was tested. Which cytotoxicity call did it give?
The cytotoxicity call was “inactive”.

For C[C@@H]1CN([C@H](C)CO)C(=O)c2cccc(NC(=O)Nc3ccccc3)c2O[C@H]1CN(C)Cc1ccc(C(=O)Nc2ccccc2N)cc1, which cytotoxicity call is on record?
The cytotoxicity call was “inactive”.

Which cytotoxicity call does the source give for NCc1ccc(-c2ccccc2O)cc1 here?
Its cytotoxicity call is “inactive”.

Which cytotoxicity call does the source give for C[C@H](CO)N1C[C@H](C)[C@@H](CN(C)Cc2ccc(Oc3ccccc3)cc2)Oc2ccc(NC(=O)C3CC3)cc2C1=O here?
Its cytotoxicity call is “inactive”.

With Cc1occc(=O)c1O as the molecule, how does the cytotoxicity call read?
Its cytotoxicity call is “inactive”.

With CCN(CC)c1ncc(C#N)c(N)n1 as the molecule, how does the cytotoxicity call read?
The cytotoxicity call was “inactive”.

For CN1CC(O)C2=CC(=NNC(N)=O)C(=O)C=C21 (stereo not given), which cytotoxicity call is on record?
The cytotoxicity call was “inactive”.

How did the cytotoxicity call turn out when Nc1ccccc1C(=O)N[C@H]1CCCCNC1=O was run?
Its cytotoxicity call is “inactive”.

How did the cytotoxicity call turn out when C[C@H]1CN([C@@H](C)CO)C(=O)c2cc(NC(=O)C3CCCCC3)ccc2O[C@@H]1CN(C)Cc1ccc(Cl)c(Cl)c1 was run?
Its cytotoxicity call is “inactive”.

COc1ccc(S(=O)(=O)Nc2ccc3c(c2)C(=O)N([C@H](C)CO)C[C@@H](C)[C@H](CN(C)Cc2ccc(Oc4ccccc4)cc2)O3)cc1 was tested. Which cytotoxicity call did it give?
Its cytotoxicity call is “inactive”.

With Cc1noc(C)c1NC(=O)Nc1ccc2c(c1)CC(=O)N([C@@H](C)CO)C[C@@H](C)[C@@H](CN(C)C(=O)Nc1ccc(C(F)(F)F)cc1)O2 as the molecule, how does the cytotoxicity call read?
The cytotoxicity call was “inactive”.

Which cytotoxicity call does the source give for COc1ccc(NC(=O)Nc2cccc3c2O[C@H](CN(C)S(=O)(=O)c2cn(C)cn2)[C@@H](C)CN([C@H](C)CO)C3=O)cc1 here?
The cytotoxicity call was “inactive”.

Which cytotoxicity call does the source give for O=C(C[C@H]1CC[C@@H]2[C@H](COC[C@@H](O)CN2S(=O)(=O)c2cccc(Cl)c2)O1)NCCCN1CCOCC1 here?
The cytotoxicity call was “inactive”.

For CC[C@H]1OC[C@@H]2CN(C(=O)CN(C)C)CC[C@H]21, which cytotoxicity call is on record?
Its cytotoxicity call is “inactive”.

Which cytotoxicity call does the source give for C[C@@H]1CN([C@H](C)CO)C(=O)c2cccc(NC(=O)c3cnccn3)c2O[C@@H]1CN(C)C(=O)Nc1ccc(F)cc1 here?
The cytotoxicity call was “inactive”.

How did the cytotoxicity call turn out when O=c1ccn([C@@H]2O[C@H](COP(=O)(O)OP(=O)(O)OP(=O)(O)OP(=O)(O)OC[C@H]3O[C@@H](n4ccc(=O)[nH]c4=O)[C@H](O)[C@@H]3O)[C@@H](O)[C@H]2O)c(=O)[nH]1 was run?
Its cytotoxicity call is “inactive”.

How did the cytotoxicity call turn out when O=C(N[C@@H]1CC[C@H](CCn2cc(C3(O)CCCC3)nn2)O[C@@H]1CO)C1CCOCC1 was run?
Its cytotoxicity call is “inactive”.

NCc1cccc(N2CCCC2)c1 was tested. Which cytotoxicity call did it give?
The cytotoxicity call was “inactive”.

For C[C@H](CO)N1C[C@H](C)[C@@H](CN(C)C(=O)NC2CCCC2)Oc2cc(Br)ccc2S1(=O)=O, which cytotoxicity call is on record?
Its cytotoxicity call is “inactive”.

Cc1cc(NC(=O)C2=C(O)c3ccccc3S(=O)(=O)N2C)no1 was tested. Which cytotoxicity call did it give?
The cytotoxicity call was “inactive”.
